Data from the supplement of paper PMC12217912.
Some of the results follow. The full chains were built here from the parent and the listed change. Inactive controls read about 0.05.

B1: TEV protease; numbered along this chain (parent)
chain: MGESLFKGPRDYNPISSSICHLTNESDGHTTSLYGIGFGPFIITNKHLFRRNNGTLVVQSLHGVFKVKDTTTLQQHLVDGRDMIIIRMPKDFPPFPQKLKFREPQREERICLVTTNFQTKSMSSMVSDTSCTFPSGDGIFWKHWIQTKDGQCGSPLVSTRDGFIVGIHSASNFTNTNNYFTSVPKNFMELLTNQEAQQWVSGWRLNADSVLWGGHKVFMVKPEEPFQPVKEATQL

Variants of: B1
Experiment: raw area under fraction-flipped curve 0-4 h after induction (AUC4h, not background-subtracted), DNA-recorder readout of cleavage of the substrate (dimensionless); higher = more cleavage of the substrate by the protease variant
Details: temperature: 34 °C; time window: 0-4 h after rhamnose induction
Protocol: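 In vivo DNA recorder in E. coli TOP10(DE3) ΔrhaA at 34 °C. Each TEVp single-site mutant (parent TEVp 0) is paired with a single-site variant of the 7-mer TEVs (canonical ENLYFQ|S). The substrate sits between flexible linkers in a Bxb1-sfGFP-TEVs-SsrA fusion, so cleavage stabilises Bxb1 and speeds flipping of a recombination array, read by NGS. The value is the raw area under the fraction-flipped curve over 0-4 h after rhamnose induction (AUC4h), with ≥20 reads per time point. It is not background-subtracted; inactive controls average about 0.047.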
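Note: Bxb1 expression induced with 0.2% (w/v) L-rhamnose at OD600 near 0.5, cultures sampled hourly, flipped fraction per protease–substrate barcode pair counted by paired-end Illumina sequencing.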

K120T
area with substrate DNLYFQS: 0.075
area with substrate FNLYFQS: 0.105
area with substrate GNLYFQS: 0.0692
area with substrate HNLYFQS: 0.0632
area with substrate LNLYFQS: 0.0643

L112D
area with substrate DNLYFQS: 0.0371
area with substrate FNLYFQS: 0.0877
area with substrate HNLYFQS: 0.0551
area with substrate INLYFQS: 0.0564
area with substrate LNLYFQS: 0.0612
area with substrate PNLYFQS: 0.0455
area with substrate SNLYFQS: 0.0397
area with substrate TNLYFQS: 0.0234
area with substrate YNLYFQS: 0.0452

L112T
area with substrate DNLYFQS: 0.0584
area with substrate FNLYFQS: 0.0631
area with substrate HNLYFQS: 0.053
area with substrate INLYFQS: 0.0441
area with substrate KNLYFQS: 0.052
area with substrate NNLYFQS: 0.0655
area with substrate PNLYFQS: 0.0767
area with substrate SNLYFQS: 0.0679
area with substrate TNLYFQS: 0.064
area with substrate WNLYFQS: 0.0446
area with substrate YNLYFQS: 0.0411

G80A
area with substrate DNLYFQS: 0.0949
area with substrate INLYFQS: 0.0665
area with substrate KNLYFQS: 0.0668
area with substrate LNLYFQS: 0.071
area with substrate PNLYFQS: 0.0855
area with substrate TNLYFQS: 0.0914
area with substrate WNLYFQS: 0.0644

P96W
area with substrate DNLYFQS: 0.0677
area with substrate GNLYFQS: 0.0678
area with substrate HNLYFQS: 0.0572
area with substrate INLYFQS: 0.0604
area with substrate LNLYFQS: 0.0589
area with substrate NNLYFQS: 0.044
area with substrate RNLYFQS: 0.0567
area with substrate SNLYFQS: 0.0586
area with substrate TNLYFQS: 0.0599
area with substrate VNLYFQS: 0.0782
area with substrate WNLYFQS: 0.0622

M88P
area with substrate DNLYFQS: 0.0512
area with substrate FNLYFQS: 0.0672
area with substrate HNLYFQS: 0.0431
area with substrate LNLYFQS: 0.0595
area with substrate PNLYFQS: 0.0813
area with substrate SNLYFQS: 0.0592
area with substrate TNLYFQS: 0.0559
area with substrate WNLYFQS: 0.0812
area with substrate YNLYFQS: 0.0485

R160F
area with substrate DNLYFQS: 0.0787
area with substrate FNLYFQS: 0.0743
area with substrate GNLYFQS: 0.076
area with substrate HNLYFQS: 0.0745
area with substrate INLYFQS: 0.0767
area with substrate KNLYFQS: 0.0693
area with substrate LNLYFQS: 0.0685
area with substrate MNLYFQS: 0.073
area with substrate PNLYFQS: 0.0775
area with substrate SNLYFQS: 0.0671
area with substrate VNLYFQS: 0.0598
area with substrate WNLYFQS: 0.0588

E224D
area with substrate DNLYFQS: 0.091
area with substrate FNLYFQS: 0.0505
area with substrate GNLYFQS: 0.0672
area with substrate HNLYFQS: 0.067
area with substrate MNLYFQS: 0.0562
area with substrate PNLYFQS: 0.0634
area with substrate TNLYFQS: 0.0566
area with substrate WNLYFQS: 0.0577
area with substrate YNLYFQS: 0.0562

H168S
area with substrate DNLYFQS: 0.0695
area with substrate HNLYFQS: 0.0665
area with substrate LNLYFQS: 0.0452
area with substrate PNLYFQS: 0.066
area with substrate SNLYFQS: 0.0642

V64Y
area with substrate DNLYFQS: 0.101
area with substrate INLYFQS: 0.0753
area with substrate KNLYFQS: 0.0739
area with substrate LNLYFQS: 0.067
area with substrate TNLYFQS: 0.0517
area with substrate YNLYFQS: 0.071

G136K
area with substrate DNLYFQS: 0.0774
area with substrate GNLYFQS: 0.085
area with substrate HNLYFQS: 0.0437
area with substrate INLYFQS: 0.0429
area with substrate KNLYFQS: 0.0606
area with substrate LNLYFQS: 0.0648
area with substrate SNLYFQS: 0.0734
area with substrate TNLYFQS: 0.0543
area with substrate WNLYFQS: 0.058
area with substrate YNLYFQS: 0.068

L48T
area with substrate DNLYFQS: 0.0634
area with substrate FNLYFQS: 0.044
area with substrate GNLYFQS: 0.0596
area with substrate HNLYFQS: 0.0598
area with substrate INLYFQS: 0.0597
area with substrate KNLYFQS: 0.0639
area with substrate MNLYFQS: 0.0714
area with substrate PNLYFQS: 0.0719
area with substrate SNLYFQS: 0.0538
area with substrate TNLYFQS: 0.0633
area with substrate VNLYFQS: 0.0396
area with substrate WNLYFQS: 0.0543
area with substrate YNLYFQS: 0.0551

T72F
area with substrate DNLYFQS: 0.0614
area with substrate FNLYFQS: 0.0601
area with substrate GNLYFQS: 0.0873
area with substrate HNLYFQS: 0.0583
area with substrate LNLYFQS: 0.0664
area with substrate MNLYFQS: 0.0585
area with substrate PNLYFQS: 0.0574
area with substrate SNLYFQS: 0.0693
area with substrate TNLYFQS: 0.0565
area with substrate WNLYFQS: 0.0559

W144F
area with substrate DNLYFQS: 0.082
area with substrate FNLYFQS: 0.0682
area with substrate GNLYFQS: 0.057
area with substrate INLYFQS: 0.0618
area with substrate LNLYFQS: 0.064
area with substrate MNLYFQS: 0.0725
area with substrate NNLYFQS: 0.0823
area with substrate PNLYFQS: 0.0759
area with substrate QNLYFQS: 0.0801
area with substrate RNLYFQS: 0.0768
area with substrate TNLYFQS: 0.0721

A232Y
area with substrate DNLYFQS: 0.0831
area with substrate FNLYFQS: 0.0571
area with substrate GNLYFQS: 0.0904
area with substrate HNLYFQS: 0.0779
area with substrate INLYFQS: 0.0717
area with substrate KNLYFQS: 0.0885
area with substrate MNLYFQS: 0.0622
area with substrate NNLYFQS: 0.0742
area with substrate RNLYFQS: 0.0788
area with substrate SNLYFQS: 0.0671
area with substrate TNLYFQS: 0.0631
area with substrate WNLYFQS: 0.0624

K120E
area with substrate DNLYFQS: 0.0803
area with substrate HNLYFQS: 0.0605
area with substrate INLYFQS: 0.0893
area with substrate KNLYFQS: 0.067
area with substrate NNLYFQS: 0.0618
area with substrate PNLYFQS: 0.083
area with substrate RNLYFQS: 0.0531
area with substrate TNLYFQS: 0.0606
area with substrate WNLYFQS: 0.0614
area with substrate YNLYFQS: 0.0615

K216A
area with substrate DNLYFQS: 0.0491
area with substrate GNLYFQS: 0.0569
area with substrate INLYFQS: 0.0633
area with substrate LNLYFQS: 0.0539
area with substrate NNLYFQS: 0.053
area with substrate RNLYFQS: 0.037
area with substrate SNLYFQS: 0.0504
area with substrate TNLYFQS: 0.0638
area with substrate VNLYFQS: 0.0661
area with substrate YNLYFQS: 0.0685

K120I
area with substrate DNLYFQS: 0.0856
area with substrate FNLYFQS: 0.0514
area with substrate HNLYFQS: 0.0675
area with substrate LNLYFQS: 0.0584
area with substrate MNLYFQS: 0.006
area with substrate PNLYFQS: 0.059
area with substrate SNLYFQS: 0.0636
area with substrate VNLYFQS: 0.0501
area with substrate YNLYFQS: 0.0409
